Source: ChEMBL document CHEMBL4888484, “Replenishing the malaria drug discovery pipeline: Screening and hit evaluation of the MMV Hit Generation Library 1 (HGL1) against asexual blood stage Plasmodium falciparum ,using a nano luciferase reporter read-out” (2022)
Screen size: about 150,000 compounds; about 540 (0.36%) showed an effect of 50% or more. The list shows a part of the results.

Test system: Plasmodium falciparum
Test: Primary screen in NF54 nanoGlo assay, in single point, at 2uM, 72h; a lower Z score goes with more inhibition
Type: functional, Erythrocyte
Conditions: timepoint 72 hour

Structure (SMILES) | % Inhibition [%] | Z score
Cc1nnc2ccc(N3CC(N(C)S(=O)(=O)Cc4cc(F)ccc4F)C3)nn12 | -8 | 1.15
CCc1cc(=O)c2cc(NC(=O)C3(c4ccc(Cl)cc4)CCOCC3)ccc2[nH]1 | -24 | 2.46
Cc1ccc2nc(-c3ccccc3)c(CN3CCC(C)CC3)c(O)c2c1 | -8 | 1.57
O=C(O)CCc1nnc2n(CCOc3ccc(Cl)cc3)c3ccccc3n2c1=O | -12 | 2.34
O=C(C1CCCC1)N1C[C@@H]2CN(Cc3cc(F)cc(F)c3)C[C@]2(C(=O)O)C1 | -16 | 1.46
CCN1c2cc(C(=O)NCc3ccccc3)ccc2C(=O)N2CCCC[C@H]21 | 34 | -0.65
Cc1ccccc1[C@@]1(CC(=O)N2CCN(CCC(N)=O)CC2)CC(=O)N(Cc2cccnc2)C1=O | 7 | -0.98
Cc1ccc(-c2ncccc2NC(=O)NC[C@H]2CCCN2S(C)(=O)=O)s1 | -9 | 1.75
O=C(NCC1CCC(F)(F)CC1)N1CCC([C@@H]2CCCO2)CC1 | -7 | 0.9
CC(=O)NCCCNC(=O)NCC(C)(C)c1ccc(F)cc1Cl | 15 | -2.03
C[C@H](NC(=O)c1cncc(O)c1)c1nncn1C | -4 | 0.69
C[C@@H](CC#N)N(C)C(=O)c1cccn(C)c1=O | 4 | -0.48
COc1ccc(-c2cnc3ncnn3c2NCCc2ccc(Cl)cc2)cc1OC | 5 | -0.69
CC(=O)Nc1ccc(NC(=O)c2ccccc2C(=O)c2ccc3c(c2)OCCO3)cc1 | 24 | -3.81
Cc1cc2c(NC(=O)N(Cc3ccsc3)CC(C)C)cccc2nn1 | -6 | 1.12
COc1ccc(C(CNC(=O)C2CCCc3ccccc32)N2CCCCC2)cc1 (stereo not drawn) | -1 | 0.28
CCCc1cc(C(=O)N2CCn3c(C(N)=O)cnc3C2)no1 | -8 | 1.18
Cc1ccc(C)c(-c2coc(-c3ccc(NC(=O)NCc4ccccc4)cc3)n2)c1 | -4 | 0.52
CCn1c(=O)c2ccn(CC(=O)NCc3cccc(Cl)c3)c2n(CC)c1=O | -20 | 2.03
CN(CCCC(=O)Nc1ccccc1)C(=O)c1cscn1 | -1 | 0.18
CCC(NS(=O)(=O)N(CC)CC(C)C#N)c1ccccc1OC(F)F (stereo not drawn) | 0 | 0.01

Structure (SMILES) | % Inhibition [%] | Z score
C=CCN(Cc1cc[nH]n1)c1ccccc1 | -16 | 2.58
C[C@H](O)CNC(=O)c1ccc(Br)cc1Cl | -13 | 1.52
C[C@@H](Cn1cccn1)Nc1nc2c(cc1C(N)=O)CCC2 | -9 | 1.17
Cc1ccc(C)c(NC(=O)N2CCC(n3cnc4cccnc43)CC2)c1 | 12 | -1.65
O=C(C(c1ccccc1)c1ccccc1)N1CC(c2nc(-c3ccco3)no2)C1 | 3 | -0.36
N#Cc1c(-c2ccc3c(c2)OCCO3)cc(-c2ccco2)nc1N | -1 | 0.25
O=C(Cn1c(=O)n(CCc2cccs2)c(=O)c2ccccc21)Nc1cc(F)cc(F)c1 | -12 | 1.84
COc1cccc(NC(=O)c2cnn3c2NC(C(=O)O)=C[C@H]3c2ccccc2OC)c1 | 2 | -0.29
COc1ccc(-c2cnc3ncnn3c2NCc2cc(C(F)(F)F)cc(C(F)(F)F)c2)cc1OC | 6 | -0.61
CCc1c(C)nn(CC(=O)N2CCNC[C@H]2C(=O)N2CCOCC2)c1C | -12 | 2.33
C=CCN=C(NCc1ccccc1CO)NC(C)C | -13 | 1.5
NC(=O)c1ccc(C(F)(F)F)nc1N1CCC[C@H](Cn2ccnc2)C1 | -15 | 1.44
CNc1nc(C)ccc1C(=O)Nc1cc(C(F)(F)F)n[nH]1 | -9 | 0.99
COc1cc(OC)c2ncnc(N3CC4(CCC4)C3C3CCCO3)c2c1 (stereo not drawn) | 2 | -0.38
N#CCC(=O)NCc1ccc(Cl)cc1Cl | -14 | 1.58
Cc1ccccc1OCC(=O)N[C@@H]1C[C@H]2C(=O)NCC(=O)N2C1 | 13 | -1.75
Cc1ncsc1CCC(=O)Nc1ccc2c(c1)C[C@H](C)O2 | -3 | 0.62
O=C(Nc1cc(Oc2ccc(F)cc2)cc(Oc2ccc(F)cc2)c1)c1cc(-c2ccccc2)nc2ccccc12 | -14 | 2.58
CN(Cc1ccsc1)C(=O)CCNc1ccccc1 | 4 | -0.67
CS(=O)(=O)N1CCc2nc(NC(=O)c3cccs3)sc2C1 | -11 | 1.58
COc1ccc(COC2CN(C(=O)COc3ccc(F)cc3)C2)cc1F | -14 | 2.17

Structure (SMILES) | % Inhibition [%] | Z score
COc1ccc(C(C)NCC(C)OC)cc1 (stereo not drawn) | -3 | 0.41
Cc1ccc(-n2ncc3c(O)c(-c4nc(-c5cccc(Cl)c5)no4)c(=O)[nH]c32)cc1 | 0 | -0.01
Cc1nc(C(=O)OCCOC2CCCCC2C)cs1 (stereo not drawn) | -7 | 0.65
COc1ccc(C(=O)Nc2ccsc2-c2nc(-c3ccc(C)cc3)no2)cc1 | 2 | -0.24
COc1cccc(-c2ncc(CNC(=O)COC[C@H]3CCCO3)s2)c1 | -12 | 1.26
CCc1nc2c(c(N[C@@H](CC)c3nc(C)c(C)s3)n1)CCNCC2 | -2 | 0.27
Cc1cnc(N)c(S(=O)(=O)N2CCC[C@@H]2COc2ccc(F)cc2)c1 | -7 | 1.28
Cc1occc1CN(C)C(=O)c1ccc(S(N)(=O)=O)o1 | 16 | -1.81
Cc1ccc(-c2c(CN3CCN(c4ccc(F)cc4)CC3)csc2C)cc1 | 6 | -1.09
FC(F)(F)c1cnc(N2CCn3ccnc3C2)s1 | -1 | 0.11
CN(Cc1cn(C)nn1)CC1CCOCC1 | -11 | 2.06
CN(CC(O)c1ccccc1)C(=O)CC1(c2ccccc2)CC(=O)N(CC2CCCCC2)C1=O (stereo not drawn) | -13 | 2.53
CCN(Cc1noc(C(C)C)n1)C1CC1 | -18 | 2.02
COc1nn(C)cc1C(=O)Nc1cc(C)ns1 | 4 | -0.66
CCN(CC)C(=O)c1sc2c(c1C)c(=O)n(CCc1ccccc1)c(=O)n2Cc1cccc(C)c1 | -13 | 1.55
O=C(Cc1ccc(NC(=O)C23CCCN2CCC3)cc1)N1CCOCC1 | -4 | 0.36
CNC(=O)N(C)CCc1noc(-c2ccc(C)cc2)n1 | -4 | 0.78
CCS(=O)(=O)NCCN(C1CCC(C)CC1)C1CCC(O)CC1 (stereo not drawn) | -2 | 0.31
Clc1cccnc1OC1CCC(NCc2cnn3ccccc23)CC1 (stereo not drawn) | -11 | 1.58
COc1ccc(C2C(C(=O)N3CCN(Cc4ccccc4)CC3)c3ccccc3C(=O)N2c2ccc(OC)cc2)cc1 (stereo not drawn) | -3 | 0.29
O=C(NCCN1CCCC1=O)c1ccc(-c2cccc(Cl)c2Cl)cc1 | 2 | -0.44

Structure (SMILES) | % Inhibition [%] | Z score
CCOC(=O)Cc1nnc(CNc2ccc(F)cc2)[nH]1 | 27 | -3.09
O=C(CN(c1ccccc1F)C1CCCC1)c1c[nH]c(C(=O)N2CCCC2)c1 | -7 | 1.41
COC[C@@H](O)CN(C)Cc1ccc(Br)cc1Cl | -5 | 0.77
CC[C@@H](CNc1nccnc1N(C)C)N1CCOCC1 | -3 | 0.67
Cn1cc(C2CCCCN2C(=O)C2COc3ccccc3O2)cn1 (stereo not drawn) | 10 | -1.64
Cc1nn(-c2ncnc3[nH]cnc23)c2c1[C@@]1(CC(=O)N2)C(=O)N(CCC(C)C)c2ccccc21 | -9 | 1.06
COc1ccc(CN2CCC[C@@]3(CCN(C(=O)C(C)C)C3)C2)c(OC)c1 | -12 | 1.83
COCCc1noc([C@H](C)NC(=O)Cc2ccc(O)c(Cl)c2)n1 | -28 | 2.8
Cc1cccc(CN2CCN(Cc3cccc(C)n3)[C@@H](CCO)C2)n1 | -2 | 0.35
CNc1nc(C)c(C(=O)NCCc2nc(C)c3c(n2)CCCC3)s1 | -9 | 1.63
CC1Cc2ccccc2N1CCNC(=O)NCC1COCCO1 (stereo not drawn) | 17 | -1.99
CCN1CC[C@H](CNC(=O)c2cc(C)c3nc(N)sc3c2)C1 | -5 | 0.62
CC1CCN(CC2CCCN(C(=O)C(C)Oc3cccnc3)C2)CC1 (stereo not drawn) | -8 | 1.09
CCS(=O)(=O)N1CCCC(C(=O)N2CCC[C@@H](O)C2)C1 (stereo partly drawn) | -12 | 1.47
CCCc1ccc(CN2CCC3(CCC(=O)N(CCc4ccncc4)C3)CC2)o1 | 6 | -0.83
O=S(=O)(CC1CCOC2(CCOCC2)C1)NCC1CC=CCC1 (stereo not drawn) | 4 | -0.73
COc1c(C)cc(NC(=O)N(C)C[C@H]2CC(=O)N(C)C2)cc1C | 1 | -0.27
COc1cc2c(cc1OC)CN(C(=O)CN(C)[C@@H](C)c1ccccc1)CC2 | -6 | 0.92
COc1cc(NC(=O)N2CCC[C@H]2C2CCC2)c(OC)c(C)c1OC | -3 | 0.51
COc1cc(OC)cc(N2CC(C(=O)N3CC(C)[S+]([O-])C(C)C3)CC2=O)c1 (stereo not drawn) | -4 | 0.51
Cc1nc2c(c(=O)n1C)CN(C(=O)Cc1ccncc1)C2 | -12 | 1.97
